To fix the notation:
B1: chrX:114868325:114868326:+_ENSG00000102024_ENST00000355899|hu_hu|FALSE|FALSE (ssRNA)
RNA: GGGAGUUCUACAGUCCGACGAUCGGGUGUAAGUUUCUUCUUGUUGAUUGCUCUUUCAUCAAUGGUAUCAGGAACUGAAAGGUUAAUCAUUUUACAAAGCACAAUUCCAUCACCAACAGCUUUGAACAGGUCAUCGGUGUUAGGCAACAGAGGAUUGAGCAUCA
B2: chr1:220276048:220276049:+_ENSG00000067704_ENST00000302637|hu_hu|hu_hu_hu_mus_True|1_28 (ssRNA)
RNA: GGGAGUUCUACAGUCCGACGAUCGCAAAUUGCCUGGUUGGCGGGAAUUGUCCAAGGCUGGGUGGUCCAAACUAAAACGCUAACAGGGGAUGAGGCAUCUGUAAGAGAUGCCAAUUUCGGAGGAGGUCUCAGGAGGGGAAAUUUCAACAGAGGAUUGAGCAUCA
B3: chr5:122939345:122939346:-_ENSMUSG00000029467_ENSMUST00000031423|mus_mus|motif|central (ssRNA)
RNA: GGGAGUUCUACAGUCCGACGAUCCUUUCUGUCCUGUCGAUACACUUUGCCCAUUUCAGGCUCAUAUUCCUUAAGAGCUUCGGUUGCAUUUUCAGCAUUUCUUUCCUGCCACACACCCACGAUUGCAUUGGCUACCAAGAUAAGCAACAGAGGAUUGAGCAUCA
B4: chr17:62500844:62500845:-_ENSG00000108654_ENST00000583239|hu_mus|FALSE|FALSE (ssRNA)
RNA: GGGAGUUCUACAGUCCGACGAUCUUGAUAAAAAUUCUUCUCAAAUUUGGGCAGCUCAUCAAGAUUCCACUUCUUUUUAACUAGUUUCUCCCCAGGAUUUCCAAACUUCUUUCCAGAGAGGGGUCCUGUUCUACUCCCUCCAAACAACAGAGGAUUGAGCAUCA
B5: chr9:14812383:14812384:-_ENSMUSG00000031934_ENSMUST00000164273|mus_mus|mus_mus_mus_hu_True|68_108 (ssRNA)
RNA: GGGAGUUCUACAGUCCGACGAUCAUAGCUCAAGUAGAUACACGCUAACAGUAUAAUGAUGAGUGUCACCAGCCGGCAGCUAAUGUACUUGAUGAUUAAAUUAUUAGAAUUUUUCUUUGUCUUCAAGUACUGCUCCACAAUUGGCAACAGAGGAUUGAGCAUCA
B6: chr7:118215863:118215864:-_ENSMUSG00000005610_ENSMUST00000162415|mus_hu|FALSE|FALSE (ssRNA)
RNA: GGGAGUUCUACAGUCCGACGAUCUAUUGCAACAACUCAAGUAUUACUGAGCAAAGUGCAUUUCUACAGUAUUCAGUGUUGCUAUUCAGUUUUCUAACUUAAAACAGCCUAUGAUAACUGGCAGCAAAGAAGGUCCUUGCAAUACAACAGAGGAUUGAGCAUCA
B7: 11281310_11281430_1695_3pUTR_ENSG00000154319_ENST00000284486|human|control|control (ssRNA)
RNA: GGGAGUUCUACAGUCCGACGAUCCUGGGGCUGCGUCCCCAAGUGCCCAUUUGUCAUGCCUUUCGAUUUUCCCUUCCUAGUAGCUCCCUGUCAAUGUUGCUGAGUCAUGUACUUAGGGUGAAUUUGAGACAAUACUUAGAGGACCAACAGAGGAUUGAGCAUCA
B8: chr12:48362563:48362564:+_ENSG00000134291_ENST00000256686|hu_hu|hu_hu_hu_mus_False|18_78 (ssRNA)
RNA: GGGAGUUCUACAGUCCGACGAUCUCCGUCAAGCCCUUCGAUAGACCCUUGCGGGGGUGGUAAAAACCACUUUGUAUGGGGAAGGAAAAGAAACGCCAAAAACUUUCCAAAAAGCGGUUCAAAAAGCAGGCGGGAGGGGGAGGUCAACAGAGGAUUGAGCAUCA
B9: 42873059_42873707_7040_CDS_ENSG00000105429_ENST00000334370|human|control|control (ssRNA)
RNA: GGGAGUUCUACAGUCCGACGAUCCACAGGGCGGCACAGCCCUGUCAUGUUGUCCAUGGUAUAGCCGGUCUUGCAGCUGCACUCAUAGCCGUGGGGCUGGUCGUGGCAAUUCUGCGUCUCGUUGCAGUCGUGGUGCCCGUUUGCCAACAGAGGAUUGAGCAUCA
B10: chr14:89307221:89307222:+_ENSG00000165533_ENST00000346301|hu_mus|hu_hu_hu_mus_False|28_88 (ssRNA)
RNA: GGGAGUUCUACAGUCCGACGAUCUCCUGUUUGGUUAGUGCCAGGGAGUUUCAAAGAUGUGCCAGGGCGUGGGACCUGAGCAAUAGCAUUUUCAUCCAGGAUCAUUUCUGCAAUUCCUUCCUGGUCCACAUCAAUUUCAUCUAUCAACAGAGGAUUGAGCAUCA
B11: chr6:36887377:36887378:+_ENSG00000198663_ENST00000480824|hu_hu|FALSE|FALSE (ssRNA)
RNA: GGGAGUUCUACAGUCCGACGAUCUCUUCGGCACUGGAAGGGAGGGAUGAGCUGCAACAUGGCCUCACCGCUGCCAAUGAUAAAUAGGUCAGGCAUCUUAUGCAUCUUACUCCCCACAACAGGUUCUGGGUGAAGAAAGGAGCACAACAGAGGAUUGAGCAUCA
B12: chr8:92086081:92086082:+_ENSG00000155100_ENST00000285420|hu_hu|FALSE|FALSE (ssRNA)
RNA: GGGAGUUCUACAGUCCGACGAUCUAUCCGAGGUGGCUGAUUCUCAAGCACCAAGUUUGAAAUGUUAACAGCAACAGAAUCUAUCUUAUUCUCCUUAGUAGUCAGCUUCAAUUGCUCCAGUUCCUCUCUAUGUUUCUGUUCCAUCAACAGAGGAUUGAGCAUCA
B13: chr5:128440902:128440903:+_ENSG00000066583_ENST00000173527|hu_mus|hu_hu_hu_mus_True|18_98 (ssRNA)
RNA: GGGAGUUCUACAGUCCGACGAUCUUGAACGGUGCUGCCAAGACCUUUGGGGUAUUGUUCCGUUAUGAUAACUGGAAUCCCUAAGAUCCGAGCUCCUUGCAACAGUCUCUGUCCCACGCUAAUAAUAUCCCCAAAGUAUUUGAUCAACAGAGGAUUGAGCAUCA
B14: 80391620_80393606_440_CDS_ENSG00000169660_ENST00000327949|human|control|control (ssRNA)
RNA: GGGAGUUCUACAGUCCGACGAUCUAGCCACCGGCGCGAGGCCUCCCCCUCUCCGAGGUAAUAGACCUCAUCACACCCGAUGUGCAGCCGCUGGGCGCCUGGGUGUAGCUCCAGGACCUGGUCAAUCAUGGCGCCCACCAGCGCCAACAGAGGAUUGAGCAUCA

The values below come from PMC12136788.

This is one part of the list.

The target of this assay is T1, UNK ZnF1-3 (human, UniProt Q9C0B0 31-174).
T1 sequence: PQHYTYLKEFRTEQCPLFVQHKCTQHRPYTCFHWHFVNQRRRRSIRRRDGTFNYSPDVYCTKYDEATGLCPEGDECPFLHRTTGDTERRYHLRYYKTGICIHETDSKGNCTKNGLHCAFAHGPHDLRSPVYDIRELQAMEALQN
Kind of assay: nsRBNS (natural sequence RNA bind-n-seq); RBNS binding buffer (assumed for nsRBNS): 25 mM Tris pH 7.5, 150 mM KCl, 3 mM MgCl2, 0.01% Triton X-100, 500 ug/ml BSA, 20 U/ml SUPERase-In, 4 C; UNK is unkempt and MSI1 is Musashi-1; names of the RNAs are library labels; protein concentration not given here; high values mean tight binding.
With B1, the binding signal was determined as 0.682 enrichment R.

B2: the binding signal is 2.55 enrichment R.

With B3, the binding signal came out at 0.823 enrichment R.

Take B4: the binding signal turned out to be 1.38 enrichment R.

Molecule B5 yielded a binding signal of 0.782 enrichment R.

Turning to B6, the binding signal is 0.738 enrichment R.

B7 gave a binding signal of 1.04 enrichment R.

B8 yielded a binding signal of 1.95 enrichment R.

As to B9, the binding signal stood at 0.448 enrichment R.

B10 came in with a binding signal of 0.835 enrichment R.

On to B11, for which the binding signal amounted to 2.18 enrichment R.

B12: the binding signal is 1.05 enrichment R.

B13 had a binding signal of 0.679 enrichment R.

Molecule B14 registered a binding signal of 0.701 enrichment R.
